This is an account of results in the supplement of paper PMC4723716.

± gives the uncertainty stated by the source. In all, about 9,900 compounds were measured (“viability index relative to DMSO control”: median about 1, lowest 2% from about 0.85 on). This is one part of the list.

For this test, the system named is Plasmodium falciparum NF54 stage V gametocytes. Nature of the test: viability index relative to DMSO control (fraction); higher = less gametocyte killing. Particulars: 2.5 µM, incubation time: 72 h. The procedure: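 Broad DOS informer set and blood-stage-active DOS compounds screened in duplicate at 2.5 µM against P. falciparum NF54 stage V gametocytes with the serum-free one-step SaLSSA (1536-well): 72 h at 37 °C under low oxygen, then saponin lysis and MitoTracker Red CMXRos staining, with high-content imaging. Viability index = viable-object count divided by the plate mean of DMSO wells (0 = killed, about 1 = inactive).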

Setting [1] is: library set: Broad Institute DOS.

Regarding `N#C[C@@H]1[C@H](c2ccccc2-c2ccccc2F)[C@@H](CO)N1C(=O)c1ccccn1`, the viability index under setting [1] amounted to 1.08 ± 0.12.

`O=C(C[C@H]1CC[C@H]2[C@@H](COC[C@@H](O)CN2C(=O)c2cccnc2)O1)NCC1CC1`: the viability index under setting [1] turned out to be 1.08 ± 0.055.

On to `C[C@@H]1CN([C@@H](C)CO)C(=O)c2c(c3ccccc3n2C)-c2ccccc2CO[C@@H]1CN(C)Cc1cccc(C(F)(F)F)c1`, for which, under setting [1], the viability index was 0.839 ± 0.039.

For the compound `O=S(=O)(c1ccc(F)cc1)N1CCCCN2[C@@H](CO)[C@H](c3ccc(-c4cncnc4)cc3)[C@@H]2C1`, the viability index under setting [1] worked out at 1.07 ± 0.038.

Under setting [1], `COc1ccc2c3c([nH]c2c1)[C@@H](CO)N(C)C[C@]31CCN(CC1)S(=O)(=O)c1cn(C)cn1` came in with a viability index of 1.03 ± 0.0013.

With `CCS(=O)(=O)Nc1ccc2c(c1)C(=O)N(C)[C@@H]1CC[C@H](CC(=O)N[C@@H]3CCN(Cc4ccccc4)C3)O[C@@H]1CO2`, the viability index under setting [1] amounted to 1.05 ± 0.04.

Take `C[C@@H]1CN([C@H](C)CO)C(=O)c2cccc(NC(=O)c3cnccn3)c2O[C@@H]1CN(C)C(=O)NC1CCCCC1`: under setting [1], the viability index is 0.9634 ± 0.0088.

On to `OC[C@H]1CC[C@@H]2O[C@H](CCc3ccc(C#CCc4ccccc4)cc3)[C@H](n3cc(-c4ccccc4)nn3)C[C@@H]2O1`, for which the viability index (library set: Broad Institute Blood Stage) came to 0.781 ± 0.043.

On to `O=C(C[C@H]1C=C[C@H](NC(=O)C2CCOCC2)[C@H](CO)O1)NCCc1cscn1`, for which, under setting [1], the viability index is 1.12 ± 0.046.

As for `COc1ccc2c3c([C@@H](CO)N(C)C[C@]33CN(C3)C(=O)Nc3c(C)noc3C)n(C)c2c1`, the viability index under setting [1] came out at 1.04 ± 0.13.

Consider `O=C(Cc1cccnc1)N1CC2(C1)[C@@H](c1ccccc1)[C@@H](CO)N2C(=O)C1CCOCC1`, for which, under setting [1], the viability index is 1.11 ± 0.056.

Compound `N#C[C@H]1[C@@H](c2ccccc2-c2ccccc2F)[C@H](CO)N1C(=O)c1cccc(F)c1` had a viability index under setting [1] of 1.133 ± 0.0059.

Under setting [1], `COc1ccc(S(=O)(=O)Nc2ccc3c(c2)C(=O)N([C@H](C)CO)C[C@H](C)[C@@H](CN(C)S(=O)(=O)c2ccc(Cl)cc2)OCCCC[C@H](C)O3)cc1` yielded a viability index of 0.886 ± 0.03.

As for `CO[C@H]1CN(C)C(=O)c2cccc(C#N)c2OCC[C@@H]2CC[C@@H](OC)[C@H](CN(C)C(=O)[C@@H]1C)O2`, the viability index under setting [1] came out at 1.06 ± 0.023.

Under setting [1], `Cc1noc(C)c1S(=O)(=O)Nc1ccc2c(c1)C(=O)N([C@H](C)CO)C[C@H](C)[C@@H](CN(C)C(=O)Nc1cccc3ccccc13)OCCCC[C@@H](C)O2` returned a viability index of 1.012 ± 0.0031.

For `O=C(C[C@H]1CC[C@H]2[C@@H](COC[C@@H](O)CN2C(=O)Nc2cc(Cl)cc(Cl)c2)O1)N1CCOCC1`, the viability index under setting [1] was 1.05 ± 0.079.

In turn, `O=C1NCCOCn2nncc2CC[C@@H]1Cc1ccc(-c2ccccc2)cc1` returned a viability index under setting [1] of 1.01 ± 0.035.

Compound `CO[C@@H]1CN(C)C(=O)c2ccc(NC(=O)C3CCC3)cc2OC[C@H](C)N(Cc2ccccn2)C[C@@H]1C` registered a viability index under setting [1] of 1.02 ± 0.037.

Under setting [1], `CCCNC(=O)N1CC[C@@]2(CC1)CN([C@H](CO)c1[nH]c3cc(OC)ccc3c21)C(=O)COC` returned a viability index of 1.01 ± 0.044.
